# Some of the results follow.
# Tests used:
# Experiment in all cases: glycan array binding signal (z-score within array); higher = stronger binding
# Settings in all cases: glycan notation: IUPAC condensed, linker removed
# [1] = molecular target: Fuc(a1-2)[Gal(a1-3)]Gal(b1-4)GlcNAc(b1-2)Man(a1-3)[Fuc(a1-2)[Gal(a1-3)]Gal(b1-4)GlcNAc(b1-2)Man(a1-6)]Man(b1-4)GlcNAc(b1-4)GlcNAc
# Method in brief: (§1)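 From the Consortium for Functional Glycomics database, 3228 arrays were curated, keeping only those whose protein sequence was available. Binding is given as a within-array Z-score averaged across arrays sharing a protein sequence and across linkers. Negative Z-scores can be read as non-binding.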
# [2] = molecular target: Fuc(a1-2)[Gal(a1-3)]Gal(b1-4)[Fuc(a1-3)]GlcNAc
# Method in brief: as §1
# [3] = molecular target: Fuc(a1-2)[Gal(a1-4)]Gal(b1-4)GlcNAc
# Method in brief: as §1
# [4] = molecular target: Fuc(a1-2)[GalNAc(a1-3)]Gal
# Method in brief: as §1
# [5] = molecular target: Fuc(a1-2)[GalNAc(a1-3)]Gal(b1-3)GlcNAc
# Method in brief: as §1
# [6] = molecular target: Fuc(a1-2)[GalNAc(a1-3)]Gal(b1-3)GlcNAc(b1-2)Man(a1-3)[Fuc(a1-2)[GalNAc(a1-3)]Gal(b1-3)GlcNAc(b1-2)Man(a1-6)]Man(b1-4)GlcNAc(b1-4)GlcNAc
# Method in brief: as §1
# [7] = molecular target: Fuc(a1-2)[GalNAc(a1-3)]Gal(b1-4)Glc
# Method in brief: as §1
# [8] = molecular target: Fuc(a1-2)[GalNAc(a1-3)]Gal(b1-4)GlcNAc
# Method in brief: as §1
# [9] = molecular target: Fuc(a1-2)[GalNAc(a1-3)]Gal(b1-4)GlcNAc(b1-2)Man(a1-3)[GalNAc(a1-3)[Fuc(a1-2)]Gal(b1-4)GlcNAc(b1-2)Man(a1-6)]Man(b1-4)GlcNAc(b1-4)GlcNAc
# Method in brief: as §1
# [10] = molecular target: Fuc(a1-2)[GalNAc(a1-3)]Gal(b1-4)GlcNAc(b1-3)Gal(b1-4)GlcNAc
# Method in brief: as §1
# [11] = molecular target: Fuc(a1-2)[GalNAc(a1-3)]Gal(b1-4)GlcNAc(b1-3)Gal(b1-4)GlcNAc(b1-3)Gal(b1-4)GlcNAc
# Method in brief: as §1
# [12] = molecular target: Fuc(a1-2)[GalNAc(a1-3)]Gal(b1-4)[Fuc(a1-3)]GlcNAc
# Method in brief: as §1
# [13] = molecular target: Fuc(a1-2)[GalNAc(a1-4)]Gal(b1-4)GlcNAc
# Method in brief: as §1
# [14] = molecular target: Fuc(a1-2)[GalNAc(b1-3)]Gal
# Method in brief: as §1
# Fuc(a1-3)GlcNAc = molecular target: Fuc(a1-3)GlcNAc
# Method in brief: as §1
# [15] = molecular target: Fuc(a1-3)[Gal(b1-4)]Glc6S
# Method in brief: as §1
# [16] = molecular target: Fuc(a1-3)[Gal(b1-4)]GlcNAc
# Method in brief: as §1
# [17] = molecular target: Fuc(a1-3)[Gal(b1-4)]GlcNAc(b1-2)Man(a1-3)[Fuc(a1-3)[Gal(b1-4)]GlcNAc(b1-2)Man(a1-6)]Man(b1-4)GlcNAc(b1-4)GlcNAc
# Method in brief: as §1
# [18] = molecular target: Fuc(a1-3)[Gal(b1-4)]GlcNAc(b1-2)Man(a1-6)[Gal(b1-4)GlcNAc(b1-2)Man(a1-3)]Man(b1-4)GlcNAc(b1-4)GlcNAc
# Method in brief: as §1
# [19] = molecular target: Fuc(a1-3)[Gal(b1-4)]GlcNAc(b1-3)Gal(b1-3)[Fuc(a1-4)]GlcNAc
# Method in brief: as §1
# [20] = molecular target: Fuc(a1-3)[Gal(b1-4)]GlcNAc(b1-4)Gal(b1-4)[Fuc(a1-3)]GlcNAc
# Method in brief: as §1
# [21] = molecular target: Fuc(a1-3)[Gal(b1-4)]GlcNAc(b1-4)Gal(b1-4)[Fuc(a1-3)]GlcNAc(b1-4)Gal(b1-4)[Fuc(a1-3)]GlcNAc
# Method in brief: as §1
# [22] = molecular target: Fuc(a1-3)[Gal(b1-4)]GlcNAc6S
# Method in brief: as §1
# [23] = molecular target: Fuc(a1-3)[Gal3S(b1-4)]Glc6S
# Method in brief: as §1
# [24] = molecular target: Fuc(a1-3)[Gal3S(b1-4)]GlcNAc
# Method in brief: as §1
# [25] = molecular target: Fuc(a1-3)[Gal3S(b1-4)]GlcNAc6S
# Method in brief: as §1
# [26] = molecular target: Fuc(a1-3)[GalNAc(b1-4)]GlcNAc
# Method in brief: as §1
# [27] = molecular target: Fuc(a1-3)[Neu5Ac(a2-3)]Gal(b1-4)GlcNAc(b1-3)GalNAc
# Method in brief: as §1
# Fuc(a1-4)GlcNAc = molecular target: Fuc(a1-4)GlcNAc
# Method in brief: as §1
# Fuc(b1-3)GlcNAc = molecular target: Fuc(b1-3)GlcNAc
# Method in brief: as §1
# Gal(a1-2)Gal = molecular target: Gal(a1-2)Gal
# Method in brief: as §1
# Gal(a1-3)Gal = molecular target: Gal(a1-3)Gal
# Method in brief: as §1
# Gal(a1-3)Gal(b1-3)GlcNAc = molecular target: Gal(a1-3)Gal(b1-3)GlcNAc
# Method in brief: as §1
# Gal(a1-3)Gal(b1-4)Glc = molecular target: Gal(a1-3)Gal(b1-4)Glc
# Method in brief: as §1
# Gal(a1-3)Gal(b1-4)GlcNAc = molecular target: Gal(a1-3)Gal(b1-4)GlcNAc
# Method in brief: as §1
# [28] = molecular target: Gal(a1-3)Gal(b1-4)[Fuc(a1-3)]GlcNAc
# Method in brief: as §1
# [29] = molecular target: Gal(a1-3)Gal(b1-4)[Fuc(a1-3)]GlcNAc(b1-2)Man(a1-3)[Gal(a1-3)Gal(b1-4)[Fuc(a1-3)]GlcNAc(b1-2)Man(a1-6)]Man(b1-4)GlcNAc(b1-4)GlcNAc
# Method in brief: as §1
# Gal(a1-3)GalNAc = molecular target: Gal(a1-3)GalNAc
# Method in brief: as §1
# [30] = molecular target: Gal(a1-3)[Gal(a1-4)]Gal(b1-4)GlcNAc
# Method in brief: as §1
# Gal(a1-4)Gal(b1-4)Glc = molecular target: Gal(a1-4)Gal(b1-4)Glc
# Method in brief: as §1
# Gal(a1-4)Gal(b1-4)GlcNAc = molecular target: Gal(a1-4)Gal(b1-4)GlcNAc
# Method in brief: as §1
# [31] = molecular target: Gal(a1-4)Gal(b1-4)GlcNAc(b1-3)Gal(b1-4)Glc
# Method in brief: as §1
# Gal(a1-4)GlcNAc = molecular target: Gal(a1-4)GlcNAc
# Method in brief: as §1
# Gal(a1-6)Glc = molecular target: Gal(a1-6)Glc
# Method in brief: as §1
# Gal(b1-2)Gal = molecular target: Gal(b1-2)Gal
# Method in brief: as §1
binder,measurement,setting,value
"Spy0252 (Streptococcus pyogenes), Q9A1I9_STRP1 (protein) MNMKKLASLAMLGASVLGLAACGGKSQKEAGASKSDTAKTEITWWAFPVFTQEKAEDGVGTYEKKLIAAFEKANPEIKVKLETIDFTSGPEKITTAIEAGTAPDVLFDAPGRIIQYGKNGKLADLNDLFTEEFTKDVNNDKLIQASKAGDTAYMYPISSAPFYMALNKKMLKDAGVLDLVKEGWTTDDFEKVLKALKDKGYNPGSFFANGQGGDQGPRAFFANLYSSHITDDKVTKYTTDDANSIKAMTKISNWIKDGLMMNGSQYDGSADIQNFANGQTSFTILWAPAQPGIQAKLLEASKVDYLEIPFPSDDGKPELEYLVNGFAVFNNKDEQKVAASKTFIQFIADDKEWGPKNVVRTGAFPVRTSYGDLYKDKRMEKIAEWTKFYSPYYNTIDGFAEMRTLWFPMVQAVSNGDEKPEDALKAFTEKANKTIKKTQ",glycan array binding signal (z-score),[1],-0.278
same,glycan array binding signal (z-score),[2],-0.251
same,glycan array binding signal (z-score),[3],-0.149
same,glycan array binding signal (z-score),[4],-0.235
same,glycan array binding signal (z-score),[5],-0.255
same,glycan array binding signal (z-score),[6],-0.176
same,glycan array binding signal (z-score),[7],-0.241
same,glycan array binding signal (z-score),[8],-0.145
same,glycan array binding signal (z-score),[9],-0.225
same,glycan array binding signal (z-score),[10],-0.127
same,glycan array binding signal (z-score),[11],0.837
same,glycan array binding signal (z-score),[12],-0.212
same,glycan array binding signal (z-score),[13],-0.245
same,glycan array binding signal (z-score),[14],-0.061
same,glycan array binding signal (z-score),Fuc(a1-3)GlcNAc,-0.259
same,glycan array binding signal (z-score),[15],-0.273
same,glycan array binding signal (z-score),[16],-0.266
same,glycan array binding signal (z-score),[17],-0.261
same,glycan array binding signal (z-score),[18],-0.236
same,glycan array binding signal (z-score),[19],-0.258
same,glycan array binding signal (z-score),[20],-0.177
same,glycan array binding signal (z-score),[21],-0.228
same,glycan array binding signal (z-score),[22],-0.268
same,glycan array binding signal (z-score),[23],-0.176
same,glycan array binding signal (z-score),[24],-0.255
same,glycan array binding signal (z-score),[25],-0.242
same,glycan array binding signal (z-score),[26],-0.236
same,glycan array binding signal (z-score),[27],-0.11
same,glycan array binding signal (z-score),Fuc(a1-4)GlcNAc,-0.266
same,glycan array binding signal (z-score),Fuc(b1-3)GlcNAc,-0.263
same,glycan array binding signal (z-score),Gal(a1-2)Gal,-0.183
same,glycan array binding signal (z-score),Gal(a1-3)Gal,-0.278
same,glycan array binding signal (z-score),Gal(a1-3)Gal(b1-3)GlcNAc,-0.267
same,glycan array binding signal (z-score),Gal(a1-3)Gal(b1-4)Glc,4.21
same,glycan array binding signal (z-score),Gal(a1-3)Gal(b1-4)GlcNAc,-0.273
same,glycan array binding signal (z-score),[28],-0.266
same,glycan array binding signal (z-score),[29],-0.255
same,glycan array binding signal (z-score),Gal(a1-3)GalNAc,-0.256
same,glycan array binding signal (z-score),[30],0.178
same,glycan array binding signal (z-score),Gal(a1-4)Gal(b1-4)Glc,-0.171
same,glycan array binding signal (z-score),Gal(a1-4)Gal(b1-4)GlcNAc,-0.203
same,glycan array binding signal (z-score),[31],1.86
same,glycan array binding signal (z-score),Gal(a1-4)GlcNAc,-0.162
same,glycan array binding signal (z-score),Gal(a1-6)Glc,-0.263
same,glycan array binding signal (z-score),Gal(b1-2)Gal,-0.138
